From PubChem BioAssay AID624296 (National Center for Advancing Translational Sciences (NCATS), 2012)
Screen size: about 350,000 compounds; about 9,900 (2.8%) were called active. This list was built around the results that the source calls inconclusive (neither active nor inactive); the mix of calls is not that of the screen. The call rests on the fitted dose curve; in most records, active means well fitted activation curve with a large enough effect; inconclusive means small, poorly fitted or top-dose-only effect; inactive means no such curve, though single readings can be large or run the other way. No potency is given beside an inconclusive call; the fits are too rough. A structure can be active in one record and inactive in another.

Assay: A quantitative high throughput screen for small molecules that induce DNA re-replication in MCF 10a normal breast cells. Further: nearly all actives have a fitted effect of over 50% in size. On activity, positive = re-replication: % of control where 0% means no effect.
Conditions: MCF 10A DNA re-replication, Hoechst nuclear intensity, 48 h; activity, positive = re-replication: at 46.1 µM (top of the series)
Potency means the concentration at half of the fitted maximal effect; tags describe the fitted curve by direction and shape.

Structure (SMILES)	Potency	activity, positive = re-replication
CCCCNC(=S)N(C)/N=C/c1c(F)c(F)c(F)c(F)c1F	inconclusive [activator, single point]	
CC(C)CC(C(=O)NC(C)(C)C)N(CC1CCCO1)C(=O)c1snc(C(N)=O)c1N (stereo unspecified)		inactive: -2.14%
O=C(c1cc(S(=O)(=O)N2CCOCC2)ccc1F)N1CCc2ccccc21	inconclusive [activator, single point]	
Cc1ccc(NC(=O)CN(C)Cc2nc3c(Br)cc(Br)cc3c(=O)[nH]2)cc1	inconclusive [activator, partial curve, poor fit]	
COc1cccc(C(=O)C(C#N)=C(SC)SC)c1	inconclusive [activator, single point]	
Cc1cc(Nc2ccccc2Cl)c2ccccc2n1	inconclusive [activator, partial curve, poor fit]	
CC(C)CCNC(=O)c1ccc(Cn2c(=S)[nH]c3ccccc3c2=O)cc1	inconclusive [activator, single point]	
COc1ccc(/C=C2\SC(N3CCc4ccccc4C3)=NC2=O)cc1OC	active: 3.66 µM	
CCc1nnc(NS(=O)(=O)c2ccc(NCc3cc(Br)ccc3O)cc2)s1		inactive: 10.7%
CCN1CCc2c(sc(NC(=O)Cc3ccccc3)c2C(N)=O)C1		inactive: -4.09%
COc1ccc(C2N(c3cccc(Cl)c3)C(=O)C3CCCN32)cc1 (stereo unspecified)		inactive: 0.93%
O=C(O)CCC(=O)Nc1ccc(-c2nc3ccc(C(=O)c4ccccc4)cc3[nH]2)cc1	inconclusive [activator, single point]	
C[C@@H](CN(C)C)CN1c2ccccc2CCc2ccccc21		inactive: 0.294% [at 20.6 µM]
O=C(COC(=O)c1cc(Br)ccc1O)NC12CC3CC(CC(C3)C1)C2		inactive: 0.186%
CN(CCC#N)C(=O)COC(=O)c1c2c(nc3ccccc13)/C(=C\c1ccco1)CC2	inconclusive [activator, partial curve, poor fit]	
CC(=O)c1c(C)[nH]c(C(=O)CSc2ncnc3sc(-c4ccccc4)cc23)c1C		inactive: 10.7%
O=C(NCC(O)CO)c1csc(Nc2cccc3ccccc23)n1 (stereo unspecified)		inactive: -6.46%
CCOC(=O)/C=C1\CN(Cc2cc(OC)c(OC)c(OC)c2)S(=O)(=O)c2ccccc21	inconclusive [activator, full curve, poor fit]	
O=C1C=CC2=C3c4cc(O)c(O)cc4CC3(O)COC2=C1O (stereo unspecified)		inactive: -2.13%
COc1ccc(S(=O)(=O)N2CCc3ccccc32)cc1OC		inactive: 9.14%
Cc1ccccc1C(=O)N1CCN(c2ccc([N+](=O)[O-])c(NCc3cccnc3)c2)CC1		inactive: 3.58%
CC(=O)c1sc(NC(=O)C2CSC3(C)CCC(=O)N23)nc1-c1ccccc1 (stereo unspecified)	inconclusive [activator, single point]	
Cc1ccc(C2=NN(C)c3nc4ccccc4n3C2)cc1	inconclusive [activator, single point]	
COc1ccc2[nH]c(C(=O)N3CCC(Cc4ccccc4)CC3)cc2c1		inactive: 10.1%

Structure (SMILES)	Potency	activity, positive = re-replication
O=C(/C=C/c1ccc(Cl)cc1)NC(=S)Nc1ccccc1C(=O)O	inconclusive [activator, single point]	
CCOC(=O)c1c(CSC(=N)N)n(-c2ccc(C)cc2)c2cc(Br)c(OC(C)=O)cc12	inconclusive [activator, single point]	
Cc1c(NC(=O)c2cc3nc(-c4ccc(Br)cc4)cc(C(F)(F)F)n3n2)c(=O)n(-c2ccccc2)n1C	inconclusive [activator, single point]	
COc1cc(CNC(=O)CCCCCCC(C)C)ccc1O	inconclusive [activator, single point]	
CN1CCc2nc(SCC(=O)Nc3ccc(OC(F)(F)F)cc3)c(C#N)c(-c3cccs3)c2C1	inconclusive [activator, partial curve, poor fit]	
CCN(CC)CCNC(=O)c1ccc(-n2c(C)cc3c2CCCC3=O)cc1	inconclusive [activator, partial curve, poor fit]	
CN(/N=C/c1ccc(Br)o1)C1=NS(=O)(=O)c2ccccc21	active: 23.1 µM	
Cc1oc(-c2ccc(Cl)cc2)nc1CN1CCCC(C(=O)NCCCN2CCCC2=O)C1 (stereo unspecified)		inactive: -0.985%
COc1ccc(OC)c(NC(=O)C2CCCN(S(=O)(=O)c3c(C)noc3C)C2)c1 (stereo unspecified)	inconclusive [activator, partial curve, poor fit]	
Cc1cc(C)nc(S/C=C/C(=O)c2ccccc2)n1	active: 1.3 µM	
Cc1cc(C)nc(SCc2nc(N)nc(-c3ccccc3O)n2)n1	inconclusive [activator, single point]	
CCOC(=O)N1CCN(S(=O)(=O)c2ccc(OC)cc2)CC1	inconclusive [activator, full curve, poor fit]	
O=C(CSc1ccccc1)N(c1ccc(Br)cc1)c1nccs1	inconclusive [activator, single point]	
CN(Cc1ccc(F)cc1)C(=O)c1cccc(S(=O)(=O)NCc2ccccc2)c1		inactive: -0.044%
Cc1cc(Nc2ccc([N+](=O)[O-])cc2)nc2ccccc12	inconclusive [activator, single point]	
CN(Cc1cccs1)c1nc(-c2cccnc2)nc2ccccc12	inconclusive [activator, single point]	
COc1ccc(OC)c(-c2cc(C3CCN(c4cc(Cl)nc(N)n4)CC3)[nH]n2)c1	active: 20.6 µM	
N/C(Cc1cccc2ccccc12)=N\OC(=O)COc1ccccc1	inconclusive [activator, single point]	
CN1CCN(c2ccc(S(=O)(=O)N3CCCCC3)cc2NC(=O)CCc2ccccc2)CC1	inconclusive [activator, single point]	
Cc1ccc(/C=N/NC(=O)C2(C)CC2(Br)Br)cc1 (stereo unspecified)	inconclusive [activator, partial curve, poor fit]	
CCCCn1nnnc1NCc1cccnc1	inconclusive [activator, single point]	
COc1ccc2c(c1)C(C)CC(C)(C)N2C(=O)Nc1ccccc1 (stereo unspecified)	inconclusive [activator, single point]	
O=C(CN1CCCC1)Nc1ccc(NC(=O)Nc2ccccc2)cc1		inactive: -0.387%
O=C(Nc1ccc(C(=O)O)cc1)/C(=C\C=C\c1ccccc1)NC(=O)c1ccccc1Cl	inconclusive [activator, single point]	

Structure (SMILES)	Potency	activity, positive = re-replication
O=[N+]([O-])c1ccc(O)c2ncccc12	active: 14.6 µM	
CC(C)NC(=O)c1onc(CSc2ccc(F)c(F)c2)c1C(=O)O		inactive: -30.9%
Cc1ccc(C(=O)N2CCc3ccccc32)o1		inactive: 0.496%
CC(C)(C)c1ccc(-c2noc(CCC(=O)NCc3ccco3)n2)cc1	inconclusive [activator, single point]	
CCOC(=O)c1c(S(=O)(=O)NCC(C)c2ccccc2)c(C)n(C)c1C (stereo unspecified)		inactive: 3.56%
CN1CCN(c2ccc3c(c2)C2CC3CCN2C(=O)OCc2ccccc2)CC1 (stereo unspecified)	inconclusive [activator, single point]	
COc1ccc(S(=O)(=O)NCc2ccc(C(=O)NCCCN3CCCC(C)C3)cc2)cc1 (stereo unspecified)	inconclusive [activator, single point]	
CC(=O)N1CCN(c2ccc(NCc3cccc4ccccc34)cc2)CC1	inconclusive [activator, partial curve, poor fit]	
COc1ccc(NC(=O)c2cc(-c3ccc(C)o3)nc3ccccc23)cc1	inconclusive [activator, single point]	
c1ccc(-c2csc3ncnc(-n4cnc5ccccc54)c23)cc1	inconclusive [activator, single point]	
C/C(=N\NC(=O)c1ccc(N/N=C(\C)c2ccncc2)cc1)c1ccncc1	inconclusive [activator, single point]	
CN(Cc1ccccc1)S(=O)(=O)c1ccc(N2CCOCC2)nc1	inconclusive [activator, single point]	
CCN(CC)CCn1c2ccccc2c2nc3ccccc3nc21	inconclusive [activator, single point]	
Cc1cc(-c2nn(-c3ccccc3F)cc2CN2CCN(c3ccccn3)CC2)c(C)s1	inconclusive [activator, single point]	
CCCCCOC(=O)CC(C(=O)OCCCCC)N1CCCCC1 (stereo unspecified)	inconclusive [activator, single point]	
O=C(CN1CCN(c2ccc(F)cc2)CC1)N1CCOCC1	inconclusive [activator, single point]	
Cc1ccc(C(=O)/C=C/c2c(C)nn(-c3ccccc3)c2Cl)cc1	active: 16.4 µM	
COc1ccc(C)cc1NCc1cc(=O)oc2cc(-c3ccccc3)c(O)cc12	inconclusive [activator, single point]	
O=C(C1CCN(CC2CC=CCC2)CC1)N(CCc1ccccc1)Cc1ccccc1 (stereo unspecified)		inactive: 0.586%
O=C(O)CCn1cc(-c2ccc(F)cc2)nc1-c1ccncc1		inactive: -5.55%
Cc1cc(C)cc(NC(=O)CSc2ccc(-c3ccccn3)nn2)c1	inconclusive [activator, partial curve, poor fit]	
CCn1cc(S(=O)(=O)NCCc2ccccc2OC)cn1		inactive: -13.9%
COc1ccc(-c2ccc(CCC(=O)O)n2Cc2ccco2)cc1		inactive: -1.48%
